Experimental data reported in paper PMC4336329 (PLoS ONE, 2015).
Among all 310,000 compounds or so, about 2,200 (0.71%) showed an effect of 50% or more. The effect is printed as a negative number. This is one part of the list. Where a SMILES comes first, the peptide text is derived from it. The star is where a group is joined. PhAc = O=C(Cc1ccccc1)*; OBn = c1ccc(CO*)cc1

target: human ether-à-go-go-related gene (hERG) potassium channel (human, UniProt Q12809); experiment: primary screen, population patch clamp on CHO cells stably expressing hERG
Sequence (Q12809 whole entry, looked up): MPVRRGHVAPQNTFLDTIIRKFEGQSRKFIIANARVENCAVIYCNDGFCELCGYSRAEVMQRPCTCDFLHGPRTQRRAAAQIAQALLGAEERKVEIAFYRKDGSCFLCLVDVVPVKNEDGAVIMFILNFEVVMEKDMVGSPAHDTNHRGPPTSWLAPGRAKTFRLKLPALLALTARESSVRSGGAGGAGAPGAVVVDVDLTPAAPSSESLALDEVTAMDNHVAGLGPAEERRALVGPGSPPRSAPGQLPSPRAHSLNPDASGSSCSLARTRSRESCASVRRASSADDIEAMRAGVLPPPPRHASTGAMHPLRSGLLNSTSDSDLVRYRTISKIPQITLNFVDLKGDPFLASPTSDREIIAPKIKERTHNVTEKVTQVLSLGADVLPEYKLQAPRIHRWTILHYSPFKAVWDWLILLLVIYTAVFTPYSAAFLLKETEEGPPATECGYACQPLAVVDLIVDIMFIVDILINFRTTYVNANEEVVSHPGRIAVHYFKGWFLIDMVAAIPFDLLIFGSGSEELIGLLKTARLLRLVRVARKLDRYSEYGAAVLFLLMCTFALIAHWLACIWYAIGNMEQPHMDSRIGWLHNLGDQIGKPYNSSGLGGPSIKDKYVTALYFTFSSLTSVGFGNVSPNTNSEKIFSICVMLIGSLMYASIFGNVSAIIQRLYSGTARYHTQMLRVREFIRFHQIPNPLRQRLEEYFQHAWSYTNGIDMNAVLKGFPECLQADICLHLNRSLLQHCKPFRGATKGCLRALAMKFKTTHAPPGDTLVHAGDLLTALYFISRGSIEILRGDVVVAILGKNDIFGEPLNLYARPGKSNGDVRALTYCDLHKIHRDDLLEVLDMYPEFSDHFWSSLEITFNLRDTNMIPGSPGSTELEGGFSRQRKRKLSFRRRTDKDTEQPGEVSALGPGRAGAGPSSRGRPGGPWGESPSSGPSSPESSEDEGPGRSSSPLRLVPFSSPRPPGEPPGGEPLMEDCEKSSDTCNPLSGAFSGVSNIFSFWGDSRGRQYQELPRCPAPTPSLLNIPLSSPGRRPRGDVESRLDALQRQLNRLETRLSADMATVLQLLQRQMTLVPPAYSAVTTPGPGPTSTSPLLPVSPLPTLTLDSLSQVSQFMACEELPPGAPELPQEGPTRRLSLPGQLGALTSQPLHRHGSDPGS

SMILES	hERG current change (%, negative = inhibition) at 1uM
CCOc1ccc(CN(C)C(=O)c2ccc3ccccc3n2)cc1	9.79%
O=C(NCc1ccccc1)Nc1cccn(Cc2c(F)cccc2Cl)c1=O	18.7%
COc1cccc(OCc2nn3c(=O)c(-c4ccccc4)nnc3s2)c1	12.5%
O=C(Nc1cccnc1)c1cccc(S(=O)(=O)N2CCCC2)c1	12.8%
Cc1cc2cc(C)c3nnc(SCc4ccccn4)n3c2cc1C	-2.68%
Cn1c(-c2csc(-c3cccc(C(F)(F)F)c3)n2)n[nH]c1=S	-1.25%
CNc1ccccc1C(C)(C)c1ccn[nH]1	7.26%
CCn1c(SCc2nc3ccccc3[nH]2)nnc1-c1ccc(OC)cc1	7.57%
Cc1cc(C)n(-c2nc(Nc3ccccc3C(F)(F)F)nc(-n3nc(C)cc3C)n2)n1	-0.563%
O=C(COc1ccc(Cl)cc1Br)Nc1nnc(C2CC2)s1	13.2%
O=C(Nc1ccc(F)cc1Cl)c1ccc2c(=O)n3c(nc2c1)CCC3	6.83%
COC(=O)[C@@H]1[C@H]2C[C@H]3c4[nH]c5ccccc5c4CCN3C[C@@H]2CC[C@@H]1O	-21.3%
Cc1ccc(C(=O)N(Cc2cccnc2)Cc2cc3cc(C)ccc3n3nnnc23)cc1	9.03%
COc1cc(C(=O)OCC(=O)N2CCCCC2C)ccc1OCc1c(C)noc1C (stereo not shown)	-2.18%
CC1Cc2ccccc2N1C(=O)CN1CCc2ccccc2C1 (stereo not shown)	6.34%
CCN(CC)CCN1C(=O)C(=O)/C(=C(/O)c2c(C)[nH]c(C(=O)OC)c2C)C1c1ccccc1 (stereo not shown)	-4.32%
Cc1cccc(C)c1NC(=O)C(c1ccc([N+](=O)[O-])cc1)N(C)C(=O)c1ccccn1 (stereo not shown)	-7.66%
O=C(NCCc1cnccn1)C1CCC(=O)N(Cc2ccc(Cl)cc2)C1 (stereo not shown)	13.6%
CCn1cc(C(=O)Nc2ccccc2C(=O)OC)cn1	4.19%
O=[N+]([O-])c1ccc(N/N=C/c2cccc(O)c2O)c(S(=O)(=O)N2CCOCC2)c1	9.48%
Cc1nc(N)sc1Cc1ccc2c(c1)OCO2	6.67%
COc1cccc(NC(=O)C(Sc2nnc3ccccn23)c2ccccc2)c1 (stereo not shown)	-1.84%
CC1(C)CC(=O)C(C=Nc2ccc3cn[nH]c3c2)=C(O)C1	2.38%
CCCc1[nH]nc2c1C(c1ccc(OC)cc1OC)C(C#N)=C(N)O2 (stereo not shown)	10.3%
CCOc1ccc(NS(=O)(=O)c2ccc(C(=O)NCCCN3CCOCC3)cc2)cc1	10.1%
O=C(CC(=O)Nc1ccccc1)Nc1ccccc1	12.9%
CCOc1cc(/C=N/O)ccc1OS(=O)(=O)c1ccc(C)cc1	5.49%
CCCCCCCNC(=O)CN1C(=O)CSc2ccc(S(=O)(=O)N3CCOCC3)cc21	3.65%

SMILES	hERG current change (%, negative = inhibition) at 1uM
Cc1cccc(-c2oc3ccc(-c4ccc5c(c4)OCO5)cc3c2C#Cc2cncn2C)c1	17.4%
CCOC(=O)N1CCN(C(=S)NC(=O)c2ccc(Br)cc2)CC1	6.5%
CCC1(C(=O)c2ccc(C)cc2)C2c3ccccc3OC(=O)C21C(=O)O (stereo not shown)	7.96%
C/C(N)=C(/C#N)C(=O)COC(=O)c1cc(-c2cccc3ccccc23)nc2ccccc12	13.7%
Cc1ccc(C=Nc2ccccc2C(N)=O)cc1	13.1%
Cc1ccc(Cl)cc1N1CCN(C(=O)Cc2ccc(-n3c(=O)[nH]c4ccsc4c3=O)cc2)CC1	3.38%
O=C(N/N=C/c1ccccc1[N+](=O)[O-])C(=O)N1CCCC1	6.98%
Nc1ccc(S(=O)(=O)NC2(C(F)(F)F)NC(=O)N(c3ccc(F)cc3)C2=O)cc1 (stereo not shown)	9.95%
N#CCCN1C(=O)C2(OCCO2)c2ccccc21	13.8%
Cc1ccc(-n2cc(CN3CCCN(C=O)CC3)c(-c3ccc(F)cc3)n2)cc1	8.09%
Cc1cccc(N2CCN(c3nc4nonc4nc3N3CCSCC3)CC2)n1	13.3%
CN(C)CCCOc1ccc(Cl)cc1Br.O=C(O)C(=O)O	-29.9%
Cc1c(C)c2cc(Cl)c(OCC(=O)NCCCn3ccnc3)cc2oc1=O	8.76%
O=C(CNS(=O)(=O)c1ccc(Br)cc1)N1CCOCC1	8.4%
Cc1cc(C)nc(NCCCc2ccccc2)n1	12.1%
O=C1CC(c2ccc(Cl)c([N+](=O)[O-])c2)c2ccc3ccccc3c2N1 (stereo not shown)	-2.86%
Cc1ccc2nc(NC(=O)COC(=O)CSc3nc(C)cc(C)n3)sc2c1	5.55%
CCCOC(=O)c1c(N)sc(C(=O)OCC)c1C	14.6%
CCN(Cc1ccccc1)S(=O)(=O)c1ccc2oc(C(=O)O)c(C)c2c1	0.741%
O=C(CNC(=O)Cc1ccccc1)NCC(=O)OCc1ccccc1 (PhAc-Gly-Gly-OBn)	9.63%
O=C(COC(=O)c1ccc(CO)cc1)Nc1ccc2ccccc2c1	7.56%
Cc1ccc(N2CC(=O)Nc3c(oc4nc(-c5ccccc5)cc(C)c34)C2=O)cc1	10.1%
CCCc1cc(-c2[nH]ncc2-c2ccc3c(c2)OCCCO3)c(O)cc1O	-4.05%
O=C(CSC1=NC(=O)C(c2ccccc2)C(=O)N1)Nc1ccccc1[N+](=O)[O-] (stereo not shown)	10.5%
COc1ccc(CCN2C(=O)CC(N3CCN(S(=O)(=O)c4ccccc4)CC3)C2=O)cc1OC (stereo not shown)	7.31%
COCC(=O)NNC(=O)c1ccc(OC)cc1	6.44%
COC(=O)c1ccc2c(c1)NC1=C(C(=O)CC(C)(C)C1)C(c1ccncc1)N2 (stereo not shown)	7.34%
